{
  "source": "paper PMC9911399",
  "about": "“Two distinct binding modes provide the RNA-binding protein RbFox with extraordinary sequence specificity”",
  "binders": {"B1": {"name": "GCCUCUU (DNA:RNA)", "RNA": "GGGAGACCGGAAUUCAGAUUGUCCGCCUCUUUUAAAUCCCGUCGUAGCCACCA", "DNA 1": "CAATCTGAATTCCGGTCTCCC", "DNA 2": "TGGTGGCTACGACGGGATT"}, "B2": {"name": "UAAAACA (DNA:RNA)", "RNA": "GGGAGACCGGAAUUCAGAUUGUCCUAAAACAUUAAAUCCCGUCGUAGCCACCA", "DNA 1": "CAATCTGAATTCCGGTCTCCC", "DNA 2": "TGGTGGCTACGACGGGATT"}, "B3": {"name": "UGAAUUC (DNA:RNA)", "RNA": "B2 RNA with A26G, A29U, C30U, A31C", "DNA 1": "CAATCTGAATTCCGGTCTCCC", "DNA 2": "TGGTGGCTACGACGGGATT"}, "B4": {"name": "CACUGCC (DNA:RNA)", "RNA": "B1 RNA with G25C, C26A, C29G, U30C, U31C", "DNA 1": "CAATCTGAATTCCGGTCTCCC", "DNA 2": "TGGTGGCTACGACGGGATT"}, "B5": {"name": "CGCGUAC (DNA:RNA)", "RNA": "B1 RNA with G25C, C26G, U28G, C29U, U30A, U31C", "DNA 1": "CAATCTGAATTCCGGTCTCCC", "DNA 2": "TGGTGGCTACGACGGGATT"}, "B6": {"name": "GUCAUUU (DNA:RNA)", "RNA": "B1 RNA with C26U, U28A, C29U", "DNA 1": "CAATCTGAATTCCGGTCTCCC", "DNA 2": "TGGTGGCTACGACGGGATT"}, "B7": {"name": "CAUACUA (DNA:RNA)", "RNA": "B2 RNA with U25C, A27U, A29C, C30U", "DNA 1": "CAATCTGAATTCCGGTCTCCC", "DNA 2": "TGGTGGCTACGACGGGATT"}, "B8": {"name": "UGCAUAG (DNA:RNA)", "RNA": "B2 RNA with A26G, A27C, A29U, C30A, A31G", "DNA 1": "CAATCTGAATTCCGGTCTCCC", "DNA 2": "TGGTGGCTACGACGGGATT"}, "B9": {"name": "UUGGGAG (DNA:RNA)", "RNA": "B2 RNA with A26U, A27G, A28G, A29G, C30A, A31G", "DNA 1": "CAATCTGAATTCCGGTCTCCC", "DNA 2": "TGGTGGCTACGACGGGATT"}, "B10": {"name": "AAUAUAC (DNA:RNA)", "RNA": "B2 RNA with U25A, A27U, A29U, C30A, A31C", "DNA 1": "CAATCTGAATTCCGGTCTCCC", "DNA 2": "TGGTGGCTACGACGGGATT"}, "B11": {"name": "CCCCUAU (DNA:RNA)", "RNA": "B1 RNA with G25C, U28C, C29U, U30A", "DNA 1": "CAATCTGAATTCCGGTCTCCC", "DNA 2": "TGGTGGCTACGACGGGATT"}, "B12": {"name": "GCACGUG (DNA:RNA)", "RNA": "B1 RNA with C27A, U28C, C29G, U31G", "DNA 1": "CAATCTGAATTCCGGTCTCCC", "DNA 2": "TGGTGGCTACGACGGGATT"}, "B13": {"name": "ACAGGCG (DNA:RNA)", "RNA": "B2 RNA with U25A, A26C, A28G, A29G, A31G", "DNA 1": "CAATCTGAATTCCGGTCTCCC", "DNA 2": "TGGTGGCTACGACGGGATT"}, "B14": {"name": "GCUUGAA (DNA:RNA)", "RNA": "B1 RNA with C27U, C29G, U30A, U31A", "DNA 1": "CAATCTGAATTCCGGTCTCCC", "DNA 2": "TGGTGGCTACGACGGGATT"}, "B15": {"name": "AUAAAAC (DNA:RNA)", "RNA": "B2 RNA with U25A, A26U, C30A, A31C", "DNA 1": "CAATCTGAATTCCGGTCTCCC", "DNA 2": "TGGTGGCTACGACGGGATT"}, "B16": {"name": "GUAAGGU (DNA:RNA)", "RNA": "B1 RNA with C26U, C27A, U28A, C29G, U30G", "DNA 1": "CAATCTGAATTCCGGTCTCCC", "DNA 2": "TGGTGGCTACGACGGGATT"}, "B17": {"name": "UAAACGU (DNA:RNA)", "RNA": "B2 RNA with A29C, C30G, A31U", "DNA 1": "CAATCTGAATTCCGGTCTCCC", "DNA 2": "TGGTGGCTACGACGGGATT"}, "B18": {"name": "GCUAAUG (DNA:RNA)", "RNA": "B1 RNA with C27U, U28A, C29A, U31G", "DNA 1": "CAATCTGAATTCCGGTCTCCC", "DNA 2": "TGGTGGCTACGACGGGATT"}, "B19": {"name": "UGUGCCG (DNA:RNA)", "RNA": "B2 RNA with A26G, A27U, A28G, A29C, A31G", "DNA 1": "CAATCTGAATTCCGGTCTCCC", "DNA 2": "TGGTGGCTACGACGGGATT"}, "B20": {"name": "CGGCUCG (DNA:RNA)", "RNA": "B2 RNA with U25C, A26G, A27G, A28C, A29U, A31G", "DNA 1": "CAATCTGAATTCCGGTCTCCC", "DNA 2": "TGGTGGCTACGACGGGATT"}},
  "note": "Changes are numbered by the printed parent chain; changes in the protein carry UniProt numbers. This is one part of the list.",
  "data": [
    {"target": "T1, RBFOX1 RRM RbFoxmut (Fox-RRM*) (Homo sapiens, UniProt Q9NWB1 109-208, R118D;E147R;N151S;E152T)", "T1 sequence": "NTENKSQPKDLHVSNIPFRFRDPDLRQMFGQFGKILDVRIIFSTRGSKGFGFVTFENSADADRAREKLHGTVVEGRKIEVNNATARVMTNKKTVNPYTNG", "assay": "EMSA; HiTS-Eq, 1 nM pool, 10 min; buffer printed only for the single-RNA assays: 10 mM Tris pH 7.5, 150 mM NaCl, 3.4 mM EDTA, 0.001% NP-40, 30 C", "conditions": "tags: His6 N-terminal (pET28a); label: 5' 32P", "how_it_was_run": "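Relative association constants, normalised to the cognate motif, were derived by comparing read counts of each RNA species with those of the control reaction. The RNA sequenced was the free fraction, separated by 8% native PAGE after a 10 min equilibration in 50 µL of 1 nM 5′-radiolabelled RNA (7 randomized nucleotides) with increasing concentrations of purified wild-type or mutant RbFox RRM.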", "values": [
      {"binder": "B1", "binding signal": "0.0659 KA relative to UGCAUGU"},
      {"binder": "B2", "binding signal": "0.0707 KA relative to UGCAUGU"},
      {"binder": "B3", "binding signal": "0.0595 KA relative to UGCAUGU"},
      {"binder": "B4", "binding signal": "0.254 KA relative to UGCAUGU"},
      {"binder": "B5", "binding signal": "0.103 KA relative to UGCAUGU"},
      {"binder": "B6", "binding signal": "0.0885 KA relative to UGCAUGU"},
      {"binder": "B7", "binding signal": "0.164 KA relative to UGCAUGU"},
      {"binder": "B8", "binding signal": "0.146 KA relative to UGCAUGU"},
      {"binder": "B9", "binding signal": "0.12 KA relative to UGCAUGU"},
      {"binder": "B10", "binding signal": "0.0846 KA relative to UGCAUGU"},
      {"binder": "B11", "binding signal": "0.0944 KA relative to UGCAUGU"},
      {"binder": "B12", "binding signal": "0.324 KA relative to UGCAUGU"},
      {"binder": "B13", "binding signal": "0.146 KA relative to UGCAUGU"},
      {"binder": "B14", "binding signal": "0.167 KA relative to UGCAUGU"},
      {"binder": "B15", "binding signal": "0.1 KA relative to UGCAUGU"},
      {"binder": "B16", "binding signal": "0.0609 KA relative to UGCAUGU"},
      {"binder": "B17", "binding signal": "0.0623 KA relative to UGCAUGU"},
      {"binder": "B18", "binding signal": "0.131 KA relative to UGCAUGU"},
      {"binder": "B19", "binding signal": "0.114 KA relative to UGCAUGU"},
      {"binder": "B20", "binding signal": "0.217 KA relative to UGCAUGU"}
    ]}
  ]
}
